From patent US10299477B2 (priority 2015, dated 2019)

Legend:
Type in all cases: in vivo
[1] = system: Botrytis cinerea; assay: Test Example B: Gray mold on tomato; conditions: for Test B control value: Gray mold on tomato; for Test B control value (gray mold on tomato) / Test B (control value class): 250 ppm spray; for Test B control value (gray mold on tomato): preventive, control value class; for Test B (control value class): gray mold on tomato, Botrytis cinerea
Description: [Test Example B] Gray Mold on Tomato
Seeds of a test plant (tomato variety: Oogata Fukuju) were planted followed by cultivating until three to five first leaves (true leaves) appeared.

[2] = system: Alternaia brassicicola; assay: Test Example C: Alternaria sooty spot on cabbage; conditions: for Test C control value / Test C (control value class): Alternaria sooty spot on cabbage; for Test C control value (Alternaria sooty spot on cabbage) / Test C (control value class): 250 ppm spray; for Test C control value (Alternaria sooty spot on cabbage): preventive, control value class
Description: [Test Example C] Alternaria Sooty Spot on Cabbage
Seeds of a test plant (cabbage variety: Shikidori) were planted followed by cultivating until the cotyledons extended.

[3] = system: Blumeria graminis f sp. hordei; assay: Test Example D: Powdery mildew on barley; conditions: for Test D control value: Powdery mildew on barley; for Test D control value (powdery mildew on barley) / Test D (control value class): 250 ppm spray; for Test D control value (powdery mildew on barley): preventive, control value class; for Test D (control value class): powdery mildew on barley
Description: [Test Example D] Powdery Mildew on Barley
After the sprayed dilutions were dried, conidia of Blumeria graminis f sp. hordei were inoculated to the plants by shaking off.

[4] = system: Puccinia recondita; assay: Test Example E: Brown rust on wheat; conditions: for Test E control value: Brown rust on wheat; for Test E control value (brown rust on wheat) / Test E (control value class): 250 ppm spray; for Test E control value (brown rust on wheat): preventive, control value class; for Test E (control value class): brown rust on wheat, Puccinia recondita
Description: [Test Example E] Brown Rust on Wheat

[5] = system: Plasmopara viticola; assay: Test Example G: Downy mildew on vine; conditions: Downy mildew on vine; for Test G control value: 250 ppm sprayed before inoculation, 7-10 days after inoculation; for Test G (control value class): 250 ppm spray, 2.5 ml/pot, evaluated 7-10 days after inoculation
Description: [Test Example G] Downy Mildew on Vine
Seeds of a test plant (grape variety: Neomuscat) were planted followed by cultivating until three to four first leaves appeared. […] After the sprayed dilutions were dried, a zoosporangia suspension (1-2×10^4 zoosporangia/ml) of Plasmopara viticola was inoculated to the plants by spraying.

| SMILES | Test B control value [1] | Test C control value [2] | Test D control value [3] | Test E control value [4] | other results |
| --- | --- | --- | --- | --- | --- |
| CN1C(=O)CCC(c2ccccc2)=C1c1ncc(Cl)cc1Cl [Compound 1] | H (H shows more than 50% of control values) | H (H shows more than 50% of control values) | H (H shows more than 50% of control values) | H (H shows more than 50% of control values) | Test G control value [5]: L (L shows 50% or less of control values) |
| Cn1c(-c2ncc(Cl)cc2Cl)c(-c2ccccc2)ccc1=O [Compound 2] | H (H shows more than 50% of control values) | H (H shows more than 50% of control values) | H (H shows more than 50% of control values) | H (H shows more than 50% of control values) | Test G control value [5]: H (H shows more than 50% of control values) |
| CCn1c(-c2c(F)cccc2F)c(-c2cc(OC)cc(OC)c2Cl)ccc1=O [Compound 32] | H (H shows more than 50% of control values) | H (H shows more than 50% of control values) | H (H shows more than 50% of control values) | H (H shows more than 50% of control values) | Test G control value [5]: H (H shows more than 50% of control values) |
| CCn1c(-c2c(F)cccc2F)c(-c2cc(OC)ccc2Cl)cc(Cl)c1=O [Compound 54, 3-chloro-5-(2-chloro-5-methoxyphenyl)-6-(2,6-difluorophenyl)-1-ethylpyridine-2(1H)-one] | H (H shows more than 50% of control values) | H (H shows more than 50% of control values) | H (H shows more than 50% of control values) | H (H shows more than 50% of control values) | Test G control value [5]: H (H shows more than 50% of control values) |
| CCn1c(-c2c(F)cc(F)cc2F)c(-c2cc(OC)cc(OC)c2Br)ccc1=O [Compound 132] | H (H shows more than 50% of control values) | H (H shows more than 50% of control values) | H (H shows more than 50% of control values) | H (H shows more than 50% of control values) |  |
| CCn1c(-c2c(F)cc(F)cc2F)c(-c2cc(OC)cc(OC)c2Cl)ccc1=O [Compound 133] | H (H shows more than 50% of control values) | H (H shows more than 50% of control values) | H (H shows more than 50% of control values) | H (H shows more than 50% of control values) |  |
| COc1cc(OC)cc(-c2ccc(=O)n(C)c2-c2c(F)cc(F)cc2F)c1 [Compound 134, 5-(3,5-dimethoxyphenyl)-1-methyl-6-(2,4,6-trifluorophenyl)pyridine-2(1H)-one] | H (H shows more than 50% of control values) | H (H shows more than 50% of control values) | H (H shows more than 50% of control values) | H (H shows more than 50% of control values) |  |
| COc1cc(OC)c(Br)c(-c2ccc(=O)n(C)c2-c2c(F)cc(F)cc2F)c1 [Compound 135] | H (H shows more than 50% of control values) | H (H shows more than 50% of control values) | H (H shows more than 50% of control values) | H (H shows more than 50% of control values) |  |
| COc1ccccc1-c1ccc(=O)n(C)c1-c1c(F)cccc1F [Compound 137] | H (H shows more than 50% of control values) | H (H shows more than 50% of control values) | H (H shows more than 50% of control values) | H (H shows more than 50% of control values) |  |
| COc1ccc(Cl)cc1-c1cc(Cl)c(=O)n(C)c1-c1c(F)cccc1F [Compound 138] | L (L shows 50% or less of control values) | L (L shows 50% or less of control values) | H (H shows more than 50% of control values) | H (H shows more than 50% of control values) |  |
| COc1ccc(Br)cc1-c1cc(Br)c(=O)n(C)c1-c1c(F)cccc1F [Compound 139] | H (H shows more than 50% of control values) | H (H shows more than 50% of control values) | L (L shows 50% or less of control values) | H (H shows more than 50% of control values) |  |
| CCn1c(-c2c(F)cccc2F)c(-c2ccccc2F)ccc1=O [Compound 140] | H (H shows more than 50% of control values) | H (H shows more than 50% of control values) | H (H shows more than 50% of control values) | H (H shows more than 50% of control values) |  |
| CCn1c(-c2c(F)cccc2F)c(-c2ccccc2F)cc(Cl)c1=O [Compound 141] | H (H shows more than 50% of control values) | H (H shows more than 50% of control values) | H (H shows more than 50% of control values) | H (H shows more than 50% of control values) |  |
| CCn1c(-c2c(F)cccc2F)c(-c2ccccc2F)cc(Br)c1=O [Compound 142] | H (H shows more than 50% of control values) | H (H shows more than 50% of control values) | H (H shows more than 50% of control values) | H (H shows more than 50% of control values) |  |
| COc1cc(OC)c(Cl)c(-c2ccc(=O)n(C)c2-c2ccccc2F)c1 [Compound 229] |  |  |  |  | Test B control value (gray mold on tomato) [1]: H (H shows more than 50% of control values); Test C control value (Alternaria sooty spot on cabbage) [2]: H (H shows more than 50% of control values); Test D control value (powdery mildew on barley) [3]: L (L shows 50% or less of control values); Test E control value (brown rust on wheat) [4]: H (H shows more than 50% of control values) |
| CCN1C(=O)CCC(c2cc(F)ccc2Cl)=C1c1c(F)cc(F)cc1F [Compound 320, 5-(2-chloro-5-fluorophenyl)-1-ethyl-6-(2,4,6-trifluorophenyl)-3,4-dihydropyridine-2(1H)-one] |  |  |  |  | Test B control value (gray mold on tomato) [1]: H (H shows more than 50% of control values); Test C control value (Alternaria sooty spot on cabbage) [2]: H (H shows more than 50% of control values); Test D control value (powdery mildew on barley) [3]: H (H shows more than 50% of control values); Test E control value (brown rust on wheat) [4]: H (H shows more than 50% of control values) |
| COc1cc(OC)c(Cl)c(C2=C(c3c(F)cccc3F)N(CC(F)(F)F)C(=O)CC2)c1 [Compound 334] |  |  |  |  | Test B control value (gray mold on tomato) [1]: H (H shows more than 50% of control values); Test C control value (Alternaria sooty spot on cabbage) [2]: L (L shows 50% or less of control values); Test D control value (powdery mildew on barley) [3]: H (H shows more than 50% of control values); Test E control value (brown rust on wheat) [4]: H (H shows more than 50% of control values) |
| COc1ccc(Cl)c(-c2ccc(=O)n(C(C)C)c2-c2c(F)cccc2F)c1 [Compound 412] |  |  |  |  | Test B (control value class) [1]: H (H shows more than 50% of control values); Test C (control value class) [2]: H (H shows more than 50% of control values); Test D (control value class) [3]: H (H shows more than 50% of control values); Test E (control value class) [4]: H (H shows more than 50% of control values) |
| COCn1c(-c2c(F)cccc2F)c(-c2cc(OC)ccc2Cl)cc(Cl)c1=O [Compound 414] |  |  |  |  | Test B (control value class) [1]: H (H shows more than 50% of control values); Test C (control value class) [2]: H (H shows more than 50% of control values); Test D (control value class) [3]: H (H shows more than 50% of control values); Test E (control value class) [4]: H (H shows more than 50% of control values) |
| O=c1c(Cl)cc(-c2ccc(Cl)cc2F)c(-c2c(F)cccc2F)n1CC(F)F [Compound 429] |  |  |  |  | Test B (control value class) [1]: L (L shows 50% or less of control values); Test C (control value class) [2]: H (H shows more than 50% of control values); Test D (control value class) [3]: H (H shows more than 50% of control values); Test E (control value class) [4]: H (H shows more than 50% of control values) |
| CCn1c(-c2c(F)cc(F)cc2F)c(-c2cccc(F)c2C)cc(C)c1=O [Compound 502] |  |  |  |  | Test B (control value class) [1]: H (H shows more than 50% of control values); Test C (control value class) [2]: H (H shows more than 50% of control values); Test D (control value class) [3]: H (H shows more than 50% of control values); Test E (control value class) [4]: H (H shows more than 50% of control values) |
| CCn1c(-c2c(F)cc(OC)cc2F)c(-c2cc(OC)ccc2Cl)ccc1=O [Compound 770] |  |  |  |  | Test G (control value class) [5]: L (L shows 50% or less of control values) |
| Cn1c(-c2c(F)cc(F)cc2F)c(-c2cc(F)cc(F)c2Br)cc(Br)c1=O [Compound 817] |  |  |  |  | Test G (control value class) [5]: L (L shows 50% or less of control values) |
| CCn1c(-c2c(F)cc(OC)cc2F)c(-c2cc(F)cc(F)c2Br)cc(Cl)c1=O [Compound 819] |  |  |  |  | Test G (control value class) [5]: H (H shows more than 50% of control values) |
